In all, about 33,000 sequences were measured (“E-score (-0.5 to 0.5)”: median about -0.011, highest 2% from about 0.28 on). The list shows a part of the results.
Biological target: T1, Gcr1 (UniProt P07261)
T1 sequence: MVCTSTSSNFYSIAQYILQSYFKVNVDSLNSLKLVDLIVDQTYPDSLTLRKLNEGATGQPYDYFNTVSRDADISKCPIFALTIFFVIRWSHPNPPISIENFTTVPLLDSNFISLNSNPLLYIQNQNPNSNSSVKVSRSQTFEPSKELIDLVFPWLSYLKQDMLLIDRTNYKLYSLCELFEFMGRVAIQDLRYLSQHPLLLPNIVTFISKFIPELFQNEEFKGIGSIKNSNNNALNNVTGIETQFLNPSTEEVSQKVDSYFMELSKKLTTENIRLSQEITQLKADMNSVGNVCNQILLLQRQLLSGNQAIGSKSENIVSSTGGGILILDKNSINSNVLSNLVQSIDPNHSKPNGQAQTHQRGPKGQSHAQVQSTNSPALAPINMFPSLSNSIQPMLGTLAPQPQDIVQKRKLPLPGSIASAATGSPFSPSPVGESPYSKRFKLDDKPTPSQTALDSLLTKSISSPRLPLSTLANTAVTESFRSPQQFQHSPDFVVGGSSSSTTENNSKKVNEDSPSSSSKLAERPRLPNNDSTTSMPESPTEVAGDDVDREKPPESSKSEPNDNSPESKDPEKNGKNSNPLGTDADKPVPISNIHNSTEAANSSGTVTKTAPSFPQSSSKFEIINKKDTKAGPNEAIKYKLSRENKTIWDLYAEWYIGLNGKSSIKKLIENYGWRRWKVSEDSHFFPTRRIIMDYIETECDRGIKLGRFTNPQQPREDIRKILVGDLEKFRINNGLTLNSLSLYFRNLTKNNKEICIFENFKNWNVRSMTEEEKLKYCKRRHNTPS
Experiment: PBM E-score (8-mer binding enrichment) (E-score (-0.5 to 0.5)); higher = stronger / more preferred TF binding; most listed sequences are background and not binding sites
Conditions: protein concentration: 100 nM; construct: GST-full length
Experimental: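 Universal 'all 10-mer' protein binding microarrays (Agilent AMADID 015681) probed with GST-tagged S. cerevisiae TFs (full-length or DBD) made by in vitro transcription/translation (PURExpress), about 100-200 nM. Bound TF was detected with fluorescent anti-GST. Each ungapped 8-mer (which stands for itself and its reverse complement) is scored by the PBM enrichment score (E-score), a modified Wilcoxon-Mann-Whitney statistic from -0.5 to +0.5, computed with the Universal PBM Analysis Suite. Scale: above 0.35 generally sequence-specific binding.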

Sequence | PBM E-score
ATATACTA | 0.174
ATCATACC | -0.0309
GAAGGCGA | 0.0714
ACCCGGAC | -0.0451
AAAAAACA | 0.115
ATTATCTA | 0.0382
GTTATGCA | -0.0661
GACATGTC | -0.233
GGCTACCC | -0.0791
GGATCCGA | 0.182
CGTTCGGC | -0.241
ATGTAGGA | 0.00485
CGGTTTTC | 0.0327
ATCGACAT | 0.116
AGTATATC | 0.0181
AAAAGAGC | -0.0507
CGTAACTA | -0.00037
CGGACCCG | 0.145
ACCTCATC | -0.237
CGGGCTTA | 0.00411
AACTGTAA | 0.162
CCCGGAAC | -0.0107
GAGGCCGC | 0.238
CTACCATC | -0.185
ATCTCATA | 0.186

Sequence | PBM E-score
AGAGCTTA | -0.119
CGCATTAC | -0.0395
GCTGCACC | -0.168
GAGTGGCC | -0.213
AATGGTTC | -0.133
ACACGTCG | -0.0855
GGCAAAGA | -0.185
GCATCGCC | 0.102
GACCGAAC | -0.0743
ATGAGACA | -0.0337
AGTGCGTG | -0.0812
GGCATACC | -0.144
ATATGAGC | -0.05
AGTAGTAC | -0.0479
CAATAAGC | -0.0044
CCTGCGTA | 0.0119
AACTGTTA | 0.0139
AACCGAGT | -0.184
CAAAGCTG | 0.0879
AAGGTTAT | -0.21
GGCAGGGA | -0.0455
CAATCGCG | -0.213
ACGCGACC | -0.074
AGTAAGGA | -0.0361
CCCAATTC | 0.108

Sequence | PBM E-score
CGTCGAGC | -0.162
TAACCCAA | 0.0626
TCATGGCA | -0.091
GACGGCAA | -0.0533
CGCAAGCC | -0.151
ACTTTCCT | -0.102
ATGACTTC | 0.0803
AAGGTAAG | -0.159
TATGCGCA | -0.00632
ACGCCTGA | -0.0957
GTGACTTA | 0.00608
CATTTGGC | -0.0265
ATACGAAT | 0.113
CCCACGCC | 0.0129
ATCTCTCG | -0.095
GTTACAGA | -0.183
CCTCATCA | 0.00334
TCGATTCA | 0.045
CATTTAAG | 0.0639
CGTAGCTC | 0.0208
AAGAAGGC | 0.0402
CGAATGAC | -0.177
GTAAAGAA | 0.0282
CATTATAG | 0.165
GCAGTTAC | 0.0508

Sequence | PBM E-score
ACCGTTAC | -0.186
GACGCCTC | 0.282
GGGAATTA | 0.136
CACTCTAA | 0.067
GTATCCCA | 0.339
GGGGTCTA | -0.0583
CACCCATG | 0.0166
CACTACTA | 0.0899
ATTCGCAA | 0.0529
AAAGGCAA | -0.186
AAACTCCT | -0.101
AATATAGA | 0.0274
AGATCATA | -0.0179
CCGCAAGA | 0.107
ACAGAAAA | -0.076
GACCTTGC | -0.167
GCATAGCA | -0.122
AGGTGCAC | 0.00083
AAGTTTAT | -0.0796
CATCACTA | 0.0362
GAATCATA | 0.0695
AAAAGTGC | -0.00741
CCGGTTTA | 0.0384
AGGCCAGA | -0.19
CCACCGGG | -0.148

Sequence | PBM E-score
CATTTAAA | 0.287
GTCATAAC | -0.00864
CCGTACCA | 0.0561
CGTTACCA | 0.00841
CTTATTTC | 0.129
ATTACTTA | 0.136
CTAAAGAG | 0.0527
CTAGACGC | 0.0428
CCCCGACG | 0.0178
AACATGTG | 0.141
CGGTGACA | 0.0502
CATAGCAC | -0.0291
CTAAACAG | 0.168
AACCCGCG | -0.0103
CACTGTAC | -0.109
CATAATGC | 0.0155
ACGTTGCT | 0.119
GAACGACA | 0.144
GCCTCCCA | 0.0853
GGCAGGAC | -0.00665
GGATTAGA | 0.0797
AGATAACG | -0.0569
CACTACGA | 0.0464
GAAGCTGA | 0.322
GCACCGAC | -0.0401

Sequence | PBM E-score
AGTTTTTG | 0.0832
GATTTACA | -0.0196
CGCTGGAA | 0.173
GGAAGTAA | 0.00298
CGACGGCA | -0.024
AAGCTCTA | -0.107
ATCACGGG | -0.0862
CCGAATTC | 0.176
GGTAATTA | -0.0768
GACATGAC | -0.118
CAATCGAG | 0.00485
GAAATGCA | -0.122
GCGCTGCC | 0.0863
CTGCTATA | -0.0923
GCGTGACA | -0.133
CCTAAGCA | -0.128
CATTCCCC | -0.0585
ACCATGTC | -0.0554
CGGTTTTA | 0.0309
CCGGTTTC | 0.238
GAAAAAAA | 0.186
AGGCCCTG | -0.154
GACAAATC | -0.0172
CTAAGACA | 0.0208
GAAAAGAC | -0.0878

Sequence | PBM E-score
CGCCTTAC | 0.0782
CAAAAGGG | -0.0777
TCTGCTCA | -0.198
TTACTGAA | -0.127
GTACACGA | -0.0702
CCGTATGA | -0.00646
ATAGATAC | -0.00889
GACATTCA | -0.094
CGCGCTGA | -0.143
AGCAGTCC | -0.149
ACTAAGGA | -0.0844
TACTCAGA | 0.108
ACATCGAT | -0.0188
ATTAGAGC | -0.121
GGAAATTA | 0.0936
AGCTGGTA | 0.136
CTCAGTCA | -0.0412
GACACGCC | -0.00487
GTGGAGGA | 0.0415
CTGACTGC | -0.0274
GAGCCAGA | 0.03
GAGAGCCC | -0.141
